Self-cleavage data for 84 variants are collected here from the RNAGym collection of RNA variant scans (doi:10.7554/elife.90254).

Read counts are not given, so values of variants with three or more changes are uncertain.

The labels stand for the following.
B1: OR4K15 (parent)
chain: GUUAACGGUCAUAGGCCAUGGAAACUAGGAGCACCAUUUCGCUGCCAGUGAAGAAAUGAACAAAGAAAAUCUGGGCCAGGCAGGCAUCAAAAGAAAUAGUCUUGCGCUCAACCAGAAAGUCUGUAAUCAUUUUAAGGGUA

In the series the parent is B1. Briefly: self-cleavage, relative activity (ratio to wild type); higher = more cleavage; in vitro, sequencing; the parent is a self-cleaving ribozyme.
For the variant U2C A89G A111U, the self-cleavage worked out at 0.16.

As for U2C A23G U122C, the self-cleavage was 0.97.

Regarding U2A A56U A116C, the self-cleavage is 0.09.

U2A U57A U87G: the self-cleavage came to 0.36.

Turning to U2C A24G A110G U127C, the self-cleavage is 0.1.

As for G1A C35A A89G, the self-cleavage came to 1.74.

As for U2C A56G A64G, the self-cleavage turned out to be 0.81.

On to U2C A11G A67G, for which the self-cleavage was determined as 0.74.

In the case of U2C A82G U124G, the self-cleavage stood at 0.2.

U2C A60G A89G: the self-cleavage was 1.46.

As for U2C U9C A18G A111G, the self-cleavage was 0.12.

As to U2C A51G A55G, the self-cleavage was 0.67.

Consider U2C A22G A91G A94G, for which the self-cleavage turned out to be 1.19.

For U2C A36G G75A, the self-cleavage came out at 0.21.

With U2C A51U A59G A98G, the self-cleavage is 0.61.

Regarding U2C U37C U131C, the self-cleavage stood at 1.74.

Take U2C U38C A52G: the self-cleavage was determined as 1.4.

As to U2C A52G U97C U122C, the self-cleavage is 0.38.

As for U2C A23U G50U U108C, the self-cleavage is 0.03.

For U2C A18C A63U, the self-cleavage stood at 1.72.

U2A U100C U108C: the self-cleavage came to 0.17.

Turning to U2C A60G A64C, the self-cleavage was found to be 1.13.

Regarding U2C A64G A78U A98G U122C, the self-cleavage amounted to 0.07.

For the variant U2C A54G U70C A95G, the self-cleavage came out at 0.88.

Consider U2C A5G A24C A89G U100C, for which the self-cleavage came to 0.73.

U2C G83U A94G C105U: the self-cleavage stood at 0.05.

Take U2C A27G U87C A135G: the self-cleavage amounted to 1.64.

Consider U2C C61U A117G, for which the self-cleavage is 0.31.

On to U2C A24G A59G A66G U122C, for which the self-cleavage stood at 0.88.

Consider U2C U9C A11G U49C A68G, for which the self-cleavage was 0.9.

Take U2C U38C A114G: the self-cleavage was determined as 0.22.

As for U2A G104U A117G, the self-cleavage amounted to 0.01.

For U2C U9A C40A, the self-cleavage came to 0.79.

U2C U37C U122A: the self-cleavage worked out at 1.36.

Consider U2C A5G U12C U37C A64G A69G G75A A118G, for which the self-cleavage was determined as 0.21.

Turning to U2C A62G A117G, the self-cleavage is 1.52.

Consider U2A A96G U127C, for which the self-cleavage amounted to 0.71.

Regarding U2C U19A A33G A52G U120C U132C, the self-cleavage is 0.65.

Turning to U2C A67U A94G, the self-cleavage was determined as 1.71.

As to U2C A23G G53U U72C, the self-cleavage was 0.11.

U2C A52G A60G G83A: the self-cleavage was determined as 0.87.

As for U2A U39C U49C A89G G137A, the self-cleavage was determined as 1.1.

Consider U2C U9C A96G, for which the self-cleavage amounted to 1.46.

As for U2C A33U U39A U122C, the self-cleavage was found to be 1.51.

For U2C U19C A59G A82U U120C, the self-cleavage was found to be 0.24.

Turning to U2C A55G A56G A82U A140G, the self-cleavage amounted to 0.1.

Consider G1C U2C U26A A36G A56G, for which the self-cleavage was 0.8.

As for U2C A24G A47G U127A, the self-cleavage amounted to 1.12.

Consider U2C U49C A90G, for which the self-cleavage was determined as 0.33.

As for U2A A116G A118U, the self-cleavage came out at 0.08.

For U2C U26C U70G A92G A118U U122A U127C, the self-cleavage is 0.47.

With U2G U3C A24G U103C, the self-cleavage was 1.24.

U2C A69G A118G: the self-cleavage came out at 0.25.

As for U2C C81U A90G A116U, the self-cleavage came out at 0.03.

With U2C U57C A69G U120C, the self-cleavage amounted to 0.71.

Turning to U2C C6A A117G, the self-cleavage came to 1.33.

On to U2C G83U A134G, for which the self-cleavage is 0.5.

On to U2A A24U A92U, for which the self-cleavage came out at 0.45.

For the variant U2C A96G U130C U132C, the self-cleavage turned out to be 0.92.

In the case of U2A A78G A89G, the self-cleavage amounted to 0.6.

As for U2A U120C U127C, the self-cleavage was 0.78.

In the case of U2C A11C U43C A82U A110U A118G, the self-cleavage amounted to 0.05.

For the variant U2C A36U U38A A55G U87G, the self-cleavage came to 0.32.

U2A A5G A110G: the self-cleavage came out at 0.18.

Regarding U2C A27G A30G A118G, the self-cleavage was 0.18.

As to U2C G84A A94G U122A, the self-cleavage was 1.42.

Turning to U2C A22G A51U, the self-cleavage was determined as 1.04.

As to U2G A27G U72G, the self-cleavage came to 0.66.

U2C A78C A129U: the self-cleavage stood at 0.18.

U2G A64G A118G: the self-cleavage amounted to 0.87.

Consider U2C A92G A117G A135G, for which the self-cleavage is 0.74.

As for U2C A22G A110U, the self-cleavage stood at 0.86.

In the case of U2A A30G A33U U38C, the self-cleavage was 1.02.

Turning to U2C A23G U37C U38C U57G A94G U100C U103C U130C, the self-cleavage was found to be 1.39.

With U2C A51G A111G U127A, the self-cleavage came out at 0.03.

Take U2C A23G A63G: the self-cleavage came out at 0.72.

For U2G U3C U49C C71A, the self-cleavage was found to be 0.9.

U2C A90G U122C: the self-cleavage worked out at 1.14.

As for U2C A60U U100C, the self-cleavage is 1.3.

With U2C A30G A47G A60G A111G U120C, the self-cleavage was determined as 0.03.

For U2C C101A C112U, the self-cleavage stood at 0.02.

Consider U2C A51G A67G A86G A95G A96G U97C U131A, for which the self-cleavage worked out at 0.92.

Take U2C C35U A117G U127C: the self-cleavage turned out to be 0.4.

With U2A A36G A60G A91G, the self-cleavage worked out at 1.06.
